The source of these data is ChEMBL document CHEMBL4888484, “Replenishing the malaria drug discovery pipeline: Screening and hit evaluation of the MMV Hit Generation Library 1 (HGL1) against asexual blood stage Plasmodium falciparum ,using a nano luciferase reporter read-out” (2022).

Hit rate of the full screen: of about 150,000 compounds, about 540 (0.36%) showed an effect of 50% or more. The list shows a part of the results.

This experiment relates to Plasmodium falciparum. As to the kind of experiment: Primary screen in NF54 nanoGlo assay, in single point, at 2uM, 72h; a lower Z score goes with more inhibition. In kind it is functional, Erythrocyte. The conditions noted are these: timepoint 72 hour.
As a reminder, the % Inhibition is the drop in the measured response relative to a control, in per cent. For `COC[C@@H]1CCC[C@@H]1Nc1ncc(-c2cncnc2)c(-c2ccc(C)cc2)n1`, the “% Inhibition” value is listed as -7% and the Z score was 0.69.

For the compound `CC1CN(S(C)(=O)=O)CCC1NC(=O)NCC(F)(F)c1cccc(F)c1` (stereo not given), the “% Inhibition” value is listed as -14% and the Z score came to 1.76.

In the case of `CC(C)(CNS(C)(=O)=O)c1ccc(C(F)(F)F)cc1`, the “% Inhibition” value is on record as 0% and the Z score is listed as 0.02.

As to `CC(C)c1nn(C)cc1CN(C)Cc1c[nH]nc1-c1cccnc1`, the “% Inhibition” value is -19% and the Z score was 2.15.

Consider `COc1ccc(Br)c(CS(=O)(=O)Nc2nnc[nH]2)c1`, for which the “% Inhibition” value is on record as -11% and the Z score worked out at 2.

Regarding `CCn1c(C)ccc(C(=O)NCc2ccc3c(c2)CCO3)c1=O`, the “% Inhibition” value stood at 0% and the Z score came out at 0.03.

Turning to `CCCCN=C(NCc1c(C)noc1C)N[C@@H](C)CC`, the “% Inhibition” value came out at 1% and the Z score is -0.14.

For `C[C@@H]1Oc2ccc(NC(=O)c3ccccc3)cc2CN(Cc2ccc(Cl)cc2)C1=O`, the “% Inhibition” value stood at 6% and the Z score is on record as -0.74.

Turning to `Cc1nn(-c2ccccc2)c(C)c1[C@H]1C(=O)NCCN1C(=O)c1cccc(C(F)(F)F)c1`, the “% Inhibition” value amounted to 5% and the Z score is given as -0.54.

`Fc1cncnc1N1CC(Cn2cccn2)C1`: the “% Inhibition” value is listed as -12% and the Z score came out at 1.32.

With `O=C(COC(=O)Cc1ccc(Cl)cc1)NC1CCCCCC1`, the “% Inhibition” value came to 3% and the Z score is -0.34.

`Cc1noc(C)c1C(=O)N1CCCCc2cc(Cl)ccc21`: the “% Inhibition” value worked out at 18% and the Z score is listed as -2.05.

As to `NC(=O)C1CC1c1cccc2ccccc12` (stereo not given), the “% Inhibition” value was 31% and the Z score is listed as -3.53.

In the case of `CC(C)N1C[C@@H](Nc2nnc(-c3ccon3)s2)CC1=O`, the “% Inhibition” value is -2% and the Z score was found to be 0.32.

Regarding `Cc1ccc(Cn2cc([C@H](CC(=O)NCc3ccccc3)c3ccc(C(C)(C)C)cc3)c3ccccc32)cc1`, the “% Inhibition” value is listed as -13% and the Z score came to 1.98.

On to `c1nscc1-c1csc(CN2CCOCC2)n1`, for which the “% Inhibition” value is reported as -4% and the Z score was 0.65.

Turning to `COc1ccccc1-c1cc(CC(C)C)nc(N(C(C)=O)C(C)=O)c1C#N`, the “% Inhibition” value is -17% and the Z score stood at 2.47.

For the compound `O=C(c1cccnc1)n1nc(NCc2ccc(Cl)cc2Cl)nc1NCc1ccc(Cl)cc1Cl`, the “% Inhibition” value worked out at 4% and the Z score is -0.55.

`CCC1(C(=O)N[C@H]2CC[C@H](NC(=O)c3cc(C4CC4)[nH]n3)CC2)CCCC1`: the “% Inhibition” value is recorded as -1% and the Z score is 0.13.

As for `CCOc1ccc(NC(=O)c2cn3c(n2)CCCC3)cc1`, the “% Inhibition” value was -4% and the Z score is listed as 0.68.

With `COC[C@H]1CCCCN1Cc1ccc(C)c2ncccc12`, the “% Inhibition” value was -10% and the Z score is 1.88.

Turning to `O=C(NCC#CCN1CCOCC1)c1cc(-c2ccc3c(c2)OCO3)n[nH]1`, the “% Inhibition” value was -19% and the Z score is 2.17.

For the compound `COc1cc(C)cc(OC)c1-c1ccc(N(C)C)nn1`, the “% Inhibition” value is given as 0% and the Z score is reported as -0.04.

Consider `CCC(C)c1cc(C(=O)N(C)C2CCN(CC(F)(F)F)C2=O)on1` (stereo not given), for which the “% Inhibition” value was -4% and the Z score was 0.58.

As for `CCS(=O)(=O)N1CCC[C@H](C(=O)NC2(C)CCCCC2)C1`, the “% Inhibition” value is -18% and the Z score turned out to be 1.6.

For the compound `Cc1cc(C)nc(CCNc2cc(C(C)C)nc(N)n2)n1`, the “% Inhibition” value is -2% and the Z score worked out at 0.43.

Consider `CC(=O)NCCC1=CCCN(Cc2cc(F)ccc2Cl)C1`, for which the “% Inhibition” value is listed as 10% and the Z score is reported as -1.29.

Take `CCOc1ccc(NC(=O)Cn2c3c(cc(C#N)c2=O)CCC3)cc1`: the “% Inhibition” value is reported as -17% and the Z score was 1.72.

On to `COc1ccccc1CN(Cc1[nH]cc(C)c(=O)c1C)C1CC1`, for which the “% Inhibition” value came to 1% and the Z score is reported as -0.14.

Regarding `c1cc2cc(-c3cnn(CC4CC4)c3)ccc2[nH]1`, the “% Inhibition” value is 1% and the Z score is reported as -0.1.

Turning to `CC[C@@H](C(=O)Nc1nocc1C)c1c(C)noc1C`, the “% Inhibition” value was 2% and the Z score is on record as -0.32.

As to `N#Cc1sc2nnc(-c3ccccc3)c(-c3ccccc3)c2c1N`, the “% Inhibition” value is recorded as -47% and the Z score was 5.48.

With `CCCc1nc(C(N)=O)n(Cc2cnc(C)s2)n1`, the “% Inhibition” value is 15% and the Z score is listed as -1.95.

`CN(C)c1ccc(CN2CCN(Cc3ccc4c(c3)OCO4)C(=O)C2)cn1`: the “% Inhibition” value turned out to be 3% and the Z score was -0.28.

As to `Cc1ccc2c(c1)C(NC(c1cccnc1)c1ncc[nH]1)CCC2` (stereo not given), the “% Inhibition” value stood at 41% and the Z score is reported as -5.86.

In the case of `CC[C@@H](c1ccc(F)cc1)S(=O)(=O)Cc1ccnn1C`, the “% Inhibition” value was 0% and the Z score amounted to 0.

For the compound `O=C(Nc1nc2c(s1)CN(S(=O)(=O)c1cccc(Cl)c1)CC2)NC1CCCC1`, the “% Inhibition” value is on record as -12% and the Z score turned out to be 2.31.

As for `Cc1nc(CCNc2nc(-c3ccccn3)nc3c2CCNCC3)no1`, the “% Inhibition” value is -2% and the Z score is 0.27.

Regarding `FC(F)(F)c1cccc(OCC#CCN2CCOCC2)c1`, the “% Inhibition” value is recorded as -3% and the Z score was 0.48.

As to `c1cc(N2CCOCC3(CC3)C2)c2sccc2n1`, the “% Inhibition” value is reported as -1% and the Z score came to 0.11.

For `COc1ccc(-c2cc(C(=O)Nc3nc(-c4cccn4C)cs3)no2)c(F)c1`, the “% Inhibition” value was -1% and the Z score is listed as 0.14.

Regarding `CC(C)(C)OC(=O)N1CCc2[nH][nH]c(=O)c2C1`, the “% Inhibition” value was 1% and the Z score is on record as -0.1.

Turning to `Cc1cc(C(NC(=O)NC2CCOC3(CCCC3)C2)C2CC2)ccc1F` (stereo not given), the “% Inhibition” value stood at 2% and the Z score is reported as -0.33.

In the case of `Cn1cc(NC(=O)[C@H]2CCC(F)(F)C2)cn1`, the “% Inhibition” value was 0% and the Z score came to 0.02.

Take `O=C(O)CC[C@H]1CCCN(Cc2ccc3cc[nH]c3n2)C1`: the “% Inhibition” value was -3% and the Z score came out at 0.59.

Turning to `CC(=O)c1cccc(NC(=O)Cn2ccn3ccnc3c2=O)c1`, the “% Inhibition” value is 6% and the Z score is -1.21.

`CC(C)c1ccc(NCC(=O)Nc2ncc(Cc3ccc(Cl)cc3)s2)cc1`: the “% Inhibition” value worked out at 9% and the Z score is listed as -1.23.

Regarding `CC(C)(NCC#N)c1c(Cl)cccc1Cl`, the “% Inhibition” value is -20% and the Z score is 3.07.

Consider `Cc1ccc(C(=O)N(C)Cc2ccsc2)n1C`, for which the “% Inhibition” value was -15% and the Z score stood at 2.03.

Consider `O=c1ccn(-c2ccc(Cl)c(-c3ccc(Cl)cc3)c2)[nH]1`, for which the “% Inhibition” value is given as -10% and the Z score is 1.56.

For `CCCCOc1ccc(C(=O)N2CCN(c3nc(CN4CCN(Cc5ccccc5)CC4)cc(=O)[nH]3)CC2)cc1`, the “% Inhibition” value is on record as -8% and the Z score came out at 1.3.

For `CCN(CC)CCN(CC(=O)N1CCCN(c2ccc(-c3ccc(OC)cc3)nn2)CC1)C(=O)c1ccccc1`, the “% Inhibition” value is on record as -8% and the Z score is on record as 1.14.

With `N#CC1CCCCC1OC(=O)c1cccc(C2OCCO2)c1` (stereo not given), the “% Inhibition” value was -3% and the Z score is 0.35.

Take `COc1cc(OC)c(NC(=O)CN2C(=O)CCn3nc(-c4cccn4C)cc32)cc1Cl`: the “% Inhibition” value is -4% and the Z score was determined as 0.78.

With `CC[C@@](C)(CNC(=O)OC(C)(C)C)C(=O)Nc1cc(OC)ccc1O`, the “% Inhibition” value is 6% and the Z score is reported as -1.
